# According to the supplement of paper PMC8728848:
# The list shows a part of the results.
# Assays:
# Experiment in all cases: glycan array binding signal (z-score within array); higher = stronger binding
# Conditions in all cases: glycan notation: IUPAC condensed, linker removed
# [1] = molecular target: Gal(b1-4)GalNAc(b1-3)[Fuc(a1-2)]Gal(b1-4)GlcNAc
# Method in brief: (§1)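 The Consortium for Functional Glycomics database supplied 3228 glycan arrays, of which those lacking an available protein sequence were dropped. The binding signal, a within-array Z-score, was averaged across arrays of the same protein sequence and across linkers. Negative scores can be read as non-binding.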
# [2] = molecular target: Gal(b1-4)Glc
# Method in brief: as §1
# [3] = molecular target: Gal(b1-4)Glc6S
# Method in brief: as §1
# [4] = molecular target: Gal(b1-4)GlcNAc
# Method in brief: as §1
# [5] = molecular target: Gal(b1-4)GlcNAc(a1-6)Gal(b1-4)GlcNAc
# Method in brief: as §1
# [6] = molecular target: Gal(b1-4)GlcNAc(b1-2)Man
# Method in brief: as §1
# [7] = molecular target: Gal(b1-4)GlcNAc(b1-2)Man(a1-3)Man(b1-4)GlcNAc(b1-4)GlcNAc
# Method in brief: as §1
# [8] = molecular target: Gal(b1-4)GlcNAc(b1-2)Man(a1-3)[Gal(b1-4)GlcNAc(b1-2)Man(a1-6)]Man(b1-4)GlcNAc(b1-4)GlcNAc
# Method in brief: as §1
# [9] = molecular target: Gal(b1-4)GlcNAc(b1-2)Man(a1-3)[Gal(b1-4)GlcNAc(b1-2)Man(a1-6)]Man(b1-4)GlcNAc(b1-4)[Fuc(a1-6)]GlcNAc
# Method in brief: as §1
# [10] = molecular target: Gal(b1-4)GlcNAc(b1-2)Man(a1-3)[Gal(b1-4)GlcNAc(b1-2)Man(a1-6)][Gal(b1-4)GlcNAc(b1-4)]Man(b1-4)GlcNAc(b1-4)[Fuc(a1-6)]GlcNAc
# Method in brief: as §1
# [11] = molecular target: Gal(b1-4)GlcNAc(b1-2)Man(a1-3)[Gal(b1-4)GlcNAc(b1-2)Man(a1-6)][GlcNAc(b1-4)]Man(b1-4)GlcNAc(b1-4)[Fuc(a1-6)]GlcNAc
# Method in brief: as §1
# [12] = molecular target: Gal(b1-4)GlcNAc(b1-2)Man(a1-3)[GlcNAc(b1-2)Man(a1-6)]Man(b1-4)GlcNAc(b1-4)GlcNAc
# Method in brief: as §1
# [13] = molecular target: Gal(b1-4)GlcNAc(b1-2)Man(a1-3)[GlcNAc(b1-4)][Gal(b1-4)GlcNAc(b1-2)Man(a1-6)]Man(b1-4)GlcNAc(b1-4)GlcNAc
# Method in brief: as §1
# [14] = molecular target: Gal(b1-4)GlcNAc(b1-2)Man(a1-3)[Man(a1-6)]Man(b1-4)GlcNAc(b1-4)GlcNAc
# Method in brief: as §1
# [15] = molecular target: Gal(b1-4)GlcNAc(b1-2)Man(a1-6)Man(b1-4)GlcNAc(b1-4)GlcNAc
# Method in brief: as §1
# [16] = molecular target: Gal(b1-4)GlcNAc(b1-2)Man(a1-6)[GlcNAc(b1-2)Man(a1-3)]Man(b1-4)GlcNAc(b1-4)GlcNAc
# Method in brief: as §1
# [17] = molecular target: Gal(b1-4)GlcNAc(b1-2)Man(a1-6)[Man(a1-3)]Man(b1-4)GlcNAc(b1-4)GlcNAc
# Method in brief: as §1
# [18] = molecular target: Gal(b1-4)GlcNAc(b1-2)[Gal(b1-4)GlcNAc(b1-4)]Man(a1-3)[Gal(b1-4)GlcNAc(b1-2)Man(a1-6)]Man(b1-4)GlcNAc(b1-4)GlcNAc
# Method in brief: as §1
# [19] = molecular target: Gal(b1-4)GlcNAc(b1-2)[Gal(b1-4)GlcNAc(b1-4)]Man(a1-3)[Gal(b1-4)GlcNAc(b1-2)[Gal(b1-4)GlcNAc(b1-6)]Man(a1-6)]Man(b1-4)GlcNAc(b1-4)GlcNAc
# Method in brief: as §1
# [20] = molecular target: Gal(b1-4)GlcNAc(b1-2)[Gal(b1-4)GlcNAc(b1-4)]Man(a1-3)[GlcNAc(b1-4)][Gal(b1-4)GlcNAc(b1-2)Man(a1-6)]Man(b1-4)GlcNAc(b1-4)GlcNAc
# Method in brief: as §1
# [21] = molecular target: Gal(b1-4)GlcNAc(b1-2)[Gal(b1-4)GlcNAc(b1-4)]Man(a1-3)[GlcNAc(b1-4)][Gal(b1-4)GlcNAc(b1-2)[Gal(b1-4)GlcNAc(b1-6)]Man(a1-6)]Man(b1-4)GlcNAc(b1-4)GlcNAc
# Method in brief: as §1
# [22] = molecular target: Gal(b1-4)GlcNAc(b1-2)[Gal(b1-4)GlcNAc(b1-6)]Man(a1-6)[Gal(b1-4)GlcNAc(b1-2)Man(a1-3)]Man(b1-4)GlcNAc(b1-4)GlcNAc
# Method in brief: as §1
binder,measurement,setting,value
DrGal3 (Danio rerio) (protein) MDLSDALDAPPQQNNQQAGGPVWPGQPANPVWPGQPANPTWPGQPNQPAWPGQPNQQWPGQPGQPTAPGWPGPAPQTGPYGAPGQAPQVLTVPLDFPLQNGAYNKMLITINGEVKPNAKQFTVNLRRGNDIAFHINPRFSEGGKPVIVRNSMIGNNWGREERELPSFPFVPGKPFEMKILITDTEYKVAVNKSHLLEFKHRVFELNQITGLSIYNDVTLSTVNVETLQ,glycan array binding signal (z-score),[1],-0.252
same,glycan array binding signal (z-score),[2],-0.254
same,glycan array binding signal (z-score),[3],-0.19
same,glycan array binding signal (z-score),[4],-0.237
same,glycan array binding signal (z-score),[5],-0.216
same,glycan array binding signal (z-score),[6],-0.126
same,glycan array binding signal (z-score),[7],-0.223
same,glycan array binding signal (z-score),[8],-0.262
same,glycan array binding signal (z-score),[9],-0.232
same,glycan array binding signal (z-score),[10],-0.247
same,glycan array binding signal (z-score),[11],-0.281
same,glycan array binding signal (z-score),[12],-0.284
same,glycan array binding signal (z-score),[13],-0.287
same,glycan array binding signal (z-score),[14],-0.152
same,glycan array binding signal (z-score),[15],-0.277
same,glycan array binding signal (z-score),[16],-0.261
same,glycan array binding signal (z-score),[17],-0.24
same,glycan array binding signal (z-score),[18],-0.25
same,glycan array binding signal (z-score),[19],-0.262
same,glycan array binding signal (z-score),[20],-0.262
same,glycan array binding signal (z-score),[21],-0.282
same,glycan array binding signal (z-score),[22],-0.274
